In publication PMC4729865:
No constants are given. Whether binding was seen depends on the method and setting. For some of these results: Binding seen in cells or lysates may run through a third protein. Some binding calls cover weakened binding; strength is not graded here. Tags and fused reporters may be left off the sequences shown.

By UniProt entry, the sequences of proteins in these tests, tags left out. Where a name states a change or a piece, a line headed by the entry shows the natural chain unless it says otherwise. Chains listed by the source or under a name are the forms on record and can include a tag or linker.
UniProt Q9H081: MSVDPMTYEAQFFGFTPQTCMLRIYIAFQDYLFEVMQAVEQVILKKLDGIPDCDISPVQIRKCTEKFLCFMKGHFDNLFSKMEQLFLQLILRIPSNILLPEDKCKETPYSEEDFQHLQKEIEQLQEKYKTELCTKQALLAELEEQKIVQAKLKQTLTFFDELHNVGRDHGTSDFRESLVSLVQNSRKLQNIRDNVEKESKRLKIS
Mis12 with deletion of amino acids 111–140 (Q9H081, form named): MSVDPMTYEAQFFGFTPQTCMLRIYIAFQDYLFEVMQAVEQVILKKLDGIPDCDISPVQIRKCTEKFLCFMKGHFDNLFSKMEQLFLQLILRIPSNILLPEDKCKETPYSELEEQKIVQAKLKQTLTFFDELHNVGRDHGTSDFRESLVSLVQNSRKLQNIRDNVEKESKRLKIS

Key:
[1] = target: T1, Cep57, yeast two-hybrid fusion (human) (UniProt Q86XR8); assay: two-hybrid; Matchmaker system; bait vector pGBKT7 and prey vector pGADT7 co-transformed into AH109 yeast; growth on quadruple-selective medium (Trp-, Leu-, His-, Ade-), 2-5 days at 30 °C
T1 sequence: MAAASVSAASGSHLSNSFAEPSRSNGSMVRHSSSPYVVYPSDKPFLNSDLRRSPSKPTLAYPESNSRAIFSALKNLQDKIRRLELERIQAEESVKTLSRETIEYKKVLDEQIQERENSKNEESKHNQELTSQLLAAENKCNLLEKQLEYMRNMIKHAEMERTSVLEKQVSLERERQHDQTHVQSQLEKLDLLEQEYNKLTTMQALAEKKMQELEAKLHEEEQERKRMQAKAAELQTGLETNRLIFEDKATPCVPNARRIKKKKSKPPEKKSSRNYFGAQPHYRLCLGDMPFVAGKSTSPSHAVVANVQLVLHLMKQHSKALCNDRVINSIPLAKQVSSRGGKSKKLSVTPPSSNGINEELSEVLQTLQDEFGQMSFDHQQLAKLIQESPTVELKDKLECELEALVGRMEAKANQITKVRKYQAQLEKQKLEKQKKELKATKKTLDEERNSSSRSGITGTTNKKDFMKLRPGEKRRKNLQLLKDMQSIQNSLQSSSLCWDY

[2] = target: T2, MBP-Cep57 (1–242 amino acids) (human) (UniProt Q86XR8); assay: pull-down; about 0.2 μg MBP-Cep57 fragment coupled to Amylose Magnetic beads incubated with about 0.2 μg purified, eluted GST-tagged protein; washed five times with lysis buffer; western blotting with anti-GST; both purified
T2 sequence: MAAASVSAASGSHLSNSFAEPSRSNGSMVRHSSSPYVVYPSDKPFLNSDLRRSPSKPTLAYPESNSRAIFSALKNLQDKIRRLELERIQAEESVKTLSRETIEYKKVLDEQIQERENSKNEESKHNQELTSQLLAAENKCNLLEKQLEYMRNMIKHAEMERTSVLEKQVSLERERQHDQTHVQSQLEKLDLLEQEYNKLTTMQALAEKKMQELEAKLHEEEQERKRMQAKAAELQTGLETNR

Cep57-GFP (human) = target: T3, Cep57-GFP (human) (UniProt Q86XR8); assay: co-IP; lysates of co-transfected HEK293T cells (150 mM NaCl, 1 mM MgCl2, 50 mM Hepes pH 7.4, 1 mM EGTA, 0.5% Triton X-100); antibody 4 h at 4 °C, protein A-Sepharose 2 h; western blotting
T3 sequence: T1 sequence

[3] = target: T4, GST-Cep57 (1–242 amino acids) (human) (UniProt Q86XR8); assay: pull-down; GST-tagged Cep57 fragments on Glutathione Sepharose 4B beads incubated with lysates of HEK293T cells overexpressing the partner, 4 h at 4 °C; western blotting; only the target purified
T4 sequence: T2 sequence

Mis12 with deletion of amino acids 131–140, yeast two-hybrid fusion (from UniProt Q9H081 1-205)
binding [1]: no binding

Mis12 with deletion of amino acids 111–140 (from UniProt Q9H081 1-205)
binding [2]: no binding

GST-Mis12 L132G (from UniProt Q9H081 1-205)
binding [2]: no binding

Mis12, yeast two-hybrid fusion (from UniProt Q9H081 1-205)
binding [1]: binds

Mis12 L132G, yeast two-hybrid fusion (from UniProt Q9H081 1-205)
binding [1]: no binding

Mis12-HA (from UniProt Q9H081 1-205)
binding (Cep57-GFP (human)): binds
binding [3]: binds
